# Reference: PubChem BioAssay (NCATS)
# Inconclusive means that the source gave no clear call. Such entries were picked first, then a sample of the others. For some of these results: No potency is given beside an inconclusive call; the fits are too rough. Calls of active or inactive are those of the source. Unless noted, calls follow the shape of the dose curve; as a rule, active = well fitted curve in the direction sought with a large enough effect; inconclusive = small, poorly fitted or top-dose-only effect, or another doubt; inactive = no such curve, though single readings can be large; an effect the other way counts as inactive or inconclusive.
# Legend:
# [1] = Primary redox qHTS assay for identification of artifact compounds. (AID 1845223); conditions: Amplex Red/HRP redox cycling with DTT, fluorescence; redox activity (% of DA3003): at 53.8 µM (top of the series); also: potency is read from the fitted curve at half-maximal effect
# In short: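 Amplex Red (25 uM) and HRP (250 mU/mL) in HBSS, with compounds for 15 min, then 250 uM DTT for 30 min, room temperature, dark. Fluorescence 525/598 nm read; normalized to DMSO and 10 uM DA3003; Hill fit.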
# HEK293 = test: Cytotoxic Profiling of Annotated Libraries Using Quantitative High-Throughput Screening (AID 1296008); conditions: Five cell lines viability, CellTiter-Glo ATP luminescence, 48-72 h; max response: stronger effect = lower value; also: nearly all actives have a fitted effect of over 60% in size; also: potency is read from the fitted curve at half-maximal effect; as to max response: % is scaled to controls: 0 for no effect and ±100 for the full control effect
# In short: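 Cytotoxicity was measured as CellTiter-Glo ATP luminescence, read after 10 min at room temperature. Compound treatment of the cells lasted 48 or 72 hr at 37 degrees Celsius in a qHTS format.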
# SKOV3 = test: Primary qHTS to identify gynecologic anti-cancer compounds using libraries of approved drugs and bioactive compounds (AID 1345084); conditions: Gynecologic cancer cell panel viability, ATPlite luminescence, 48 h; series mostly up to 57.5 µM; also: nearly all actives have a fitted effect of over 55% in size; also: potency is read from the fitted curve at half-maximal effect; as to activity change, negative = cytotoxicity: % is scaled to controls: 0 for no effect and ±100 for the full control effect
# In short: (§1)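 Cells, 1,000 per well, plated 16 h, then exposed 48 h at 37 C to compounds. Viability by ATPlite luminescence after 15 min at room temperature.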
# [2] = test system: Zika virus NS2B-NS3 protease (unlinked complex); test: Primary screen GU Rhodamine qHTS for Zika virus inhibitors: Unlinked NS2B-NS3 protease assay (AID 1347159); also: potency is read from the fitted curve at half-maximal effect; nearly all actives have a fitted effect of over 60% in size
# In short: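 Noncovalent NS2B hydrophilic domain–NS3 protease domain complex (25 nM) preincubated 15 min at room temperature with compounds (up to 114 microM) in 10 mM Tris-HCl pH 8.0, 0.01% Tween 20; 1.5 microM Rhodamine110 substrate added, fluorescence change over 15 min fitted to Hill equation.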
# [3] = Primary qHTS for inhibitors of nuclear receptor binding SET domain protein 2 (NSD2) in an isogenic RCH-ACV NSD2 p.E1099K mutant (9B) (AID 1645876); also: nearly all actives have a fitted effect of over 70% in size; also: potency is read from the fitted curve at half-maximal effect
# [4] = Primary qHTS for inhibitors of nuclear receptor binding SET domain protein 2 (NSD2) in an RCH-ACV wild type WT cells (2C) (AID 1645877); conditions: activity change, negative = cell killing: at 44.9 µM (top of the series) unless noted; also: potency is read from the fitted curve at half-maximal effect; nearly all actives have a fitted effect of over 70% in size
# [5] = qHTS of pediatric cancer cell lines to identify multiple opportunities for drug repurposing: Primary screen for SK-N-MC cells (AID 1347093); conditions: SK-N-MC viability, CellTiter-Glo luminescence, 48 h; activity change, negative = cytotoxic: at 46 µM (top of the series); also: potency is read from the fitted curve at half-maximal effect
# In short: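 Metabolically active cells were quantified by ATP-dependent luminescence (CellTiter-Glo, 15 min at room temperature) following 48 h treatment. Cells had been plated at 500-1,000 per well and settled for 5 h beforehand.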
# [6] = qHTS of pediatric cancer cell lines to identify multiple opportunities for drug repurposing: Primary screen for BT-12 cells (AID 1347101); also: potency is read from the fitted curve at half-maximal effect; nearly all actives have a fitted effect of over 25% in size
# In short: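 Cells (500-1,000/well) rested 5 h, then received compounds for 48 h; metabolically active cells were measured by CellTiter-Glo luminescence. Final concentrations spanned up to 46 µM (MIPE, 11-point) or 0.59 nM-46 µM (NPC, 8-point) in primary screens, 11-point in follow-ups.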
# [7] = qHTS to identify inhibitors of the type 1 interferon - major histocompatibility complex class I in skeletal muscle: primary screen against the NCATS Pharmaceutical Collection (AID 1347407); conditions: human skeletal muscle cells, IFN-b-induced MHC-I HiBiT luminescence, 24 h; activity change, negative = inhibition: at 45.9 µM (top of the series);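 also: luminescence of HiBiT knocked into endogenous HLA-B as interferon-induced MHC class I level; potency is read from the fitted curve at half-maximal effect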
# In short: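 Compounds […] were added to CRISPR-engineered HLA-B-HiBiT C25cl48 human myoblasts with 4.0 ng/ml IFN-beta. After 24 hrs at 37 C, cells were lysed and HiBiT luminescence measured.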
# [8] = Primary qHTS for small molecule stabilizers of the endoplasmic reticulum resident proteome: Secreted ER Calcium Modulated Protein (SERCaMP) assay (AID 1508630); conditions: SH-SY5Y GLuc-SERCaMP (Gaussia luciferase released on ER calcium loss) secretion, thapsigargin, luminescence; activity change, negative = inhibition: at 38.4 µM (top of the series) unless noted; also: potency is read from the fitted curve at half-maximal effect
# In short: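 GLuc-SERCaMP-expressing SH-SY5Y cells, pretreated 16 h with compound, are challenged with thapsigargin to empty ER calcium stores; after 4 h, coelenterazine is added directly to the medium and luminescence is imaged.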
# [9] = A High-Content qHTS Against Drug Library for the Identification of Small Molecules that Inhibit DYT1 Early Onset Primary Dystonia-Associated Cell Pathology (AID 1645839; calls by dose curve; also: potency is read from the fitted curve at half-maximal effect)
# In short: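 In this high-content image screen, delE TorsinA mislocalization in inducible Flp-In 293 cells is scored as %pathology, with cell count serving as the counterscreen. Compound exposure lasts 48 h under tetracycline induction in reduced-serum medium.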
# [10] = biological target: Cytochrome P450 3A4 (Homo sapiens) (UniProt P08684); test: Cytochrome P450 family 3 subfamily A member 4 (CYP3A4) small molecule antagonists: luciferase qHTS assay (AID 1645841; active = well fitted curve in the direction sought with a large enough effect in the repeat runs; inconclusive = weak or mixed curves; inactive = no such curve, though single readings can be large; an effect the other way counts as inactive or inconclusive; also: potency is read from the fitted curve at half-maximal effect; nearly all actives have a fitted effect of over 45% in size)
# In short: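 Luminescent CYP3A4 activity readout: compounds plus enzyme-substrate mix 10 min at room temperature, reaction started with NADPH regenerating system for 1 h, stopped with detection reagent, read after 20 min. Ketoconazole served as control.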
# Tov-21-G = test: Primary qHTS to identify gynecologic anti-cancer compounds using libraries of approved drugs and bioactive compounds (AID 1345084); conditions: Gynecologic cancer cell panel viability, ATPlite luminescence, 48 h; activity change, negative = cytotoxicity: at 57.5 µM (top of the series) unless noted; also: nearly all actives have a fitted effect of over 55% in size; also: potency is read from the fitted curve at half-maximal effect; as to activity change, negative = cytotoxicity: % is scaled to controls: 0 for no effect and ±100 for the full control effect
# In short: as §1
# [11] = test system: Zika virus NS2B-NS3 protease (linked construct); test: Primary screen NINDS Rhodamine qHTS for Zika virus inhibitors (AID 1347160); conditions: activity change, negative = inhibition: at 57.1 µM (top of the series) unless noted; also: potency is read from the fitted curve at half-maximal effect; nearly all actives have a fitted effect of over 55% in size
# In short: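 Purified linked NS2B-NS3 protease (NS2B hydrophilic domain joined to NS3 protease by flexible linker), 25 nM in 10 mM Tris-HCl pH 8.0, 0.01% Tween 20. Compounds titrated, 15 min preincubation at room temperature; 1.5 microM Rhodamine110 substrate, FITC fluorescence change over 15 min.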
# [12] = biological target: Calcium and integrin-binding protein 1 (Homo sapiens) (UniProt Q99828); test: Primary qHTS for Identification of Calcium Integrin Binding Protein 1 (CIB1) Competitor (AID 1508620); also: potency is read from the fitted curve at half-maximal effect
# In short: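 CIB1-GST (1 uM final) and compound incubated 15 min at room temperature before adding FITC-alphaIIb peptide tracer (100 nM final). Competition for binding read by fluorescence polarization (ex 480, em 540) after another 15 min at room temperature.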
# [13] = biological target: Cytochrome P450 2D6 (Homo sapiens) (UniProt P10635); test: Cytochrome P450 family 2 subfamily D member 6 (CYP2D6) small molecule antagonists: luciferase biochemical (cell-free) qHTS assay (AID 1645840; active = well fitted curve in the direction sought with a large enough effect in the repeat runs; inconclusive = weak or mixed curves; inactive = no such curve, though single readings can be large; an effect the other way counts as inactive or inconclusive)
# In short: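 P450-Glo luminescent screen: recombinant CYP2D6 enzyme–proluciferin substrate mix preincubated with compound 10 min at room temperature, then NADPH regeneration added for 1 h at room temperature. Detection reagent added for 20 min; luciferin light read as relative luminescence units.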
# [14] = biological target: Cytochrome P450 2C9 (Homo sapiens) (UniProt P11712); test: Cytochrome P450 family 2 subfamily C member 9 (CYP2C9) small molecule antagonists: luciferase biochemical (cell-free) qHTS assay (AID 1645842; active = well fitted curve in the direction sought with a large enough effect in the repeat runs; inconclusive = weak or mixed curves; inactive = no such curve, though single readings can be large; an effect the other way counts as inactive or inconclusive)
# In short: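 Luminescence, after 20 min with luciferin detection reagent, reflected CYP2C9 turnover during a 1 h NADPH-driven reaction at 37C. Enzyme-substrate mix contained 0.4% bovine serum albumin and was preincubated with compound 10 min at room temperature.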
# [15] = P-glycoprotein substrates identified in KB-8-5-11 adenocarcinoma cell line, qHTS therapeutic library screen (AID 1346987); also: % is scaled to controls: 0 for no effect and ±100 for the full control effect; nearly all actives have a fitted effect of over 65% in size
# In short: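 KB-8-5-11: colchicine-selected sub-line of KB-3-1 over-expressing P-gp; assay medium lacked colchicine. 72 h drug exposure at 37 degree C, CellTiter-Glo.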
# Tov112D = test: Primary qHTS to identify gynecologic anti-cancer compounds using libraries of approved drugs and bioactive compounds (AID 1345084); conditions: Gynecologic cancer cell panel viability, ATPlite luminescence, 48 h; series mostly up to 57.5 µM; also: nearly all actives have a fitted effect of over 55% in size; also: potency is read from the fitted curve at half-maximal effect; as to activity change, negative = cytotoxicity: % is scaled to controls: 0 for no effect and ±100 for the full control effect
# In short: as §1
# Tags tell the direction and shape of the fitted curve.
# Chain of UniProt P10635 (P10635 whole entry, looked up): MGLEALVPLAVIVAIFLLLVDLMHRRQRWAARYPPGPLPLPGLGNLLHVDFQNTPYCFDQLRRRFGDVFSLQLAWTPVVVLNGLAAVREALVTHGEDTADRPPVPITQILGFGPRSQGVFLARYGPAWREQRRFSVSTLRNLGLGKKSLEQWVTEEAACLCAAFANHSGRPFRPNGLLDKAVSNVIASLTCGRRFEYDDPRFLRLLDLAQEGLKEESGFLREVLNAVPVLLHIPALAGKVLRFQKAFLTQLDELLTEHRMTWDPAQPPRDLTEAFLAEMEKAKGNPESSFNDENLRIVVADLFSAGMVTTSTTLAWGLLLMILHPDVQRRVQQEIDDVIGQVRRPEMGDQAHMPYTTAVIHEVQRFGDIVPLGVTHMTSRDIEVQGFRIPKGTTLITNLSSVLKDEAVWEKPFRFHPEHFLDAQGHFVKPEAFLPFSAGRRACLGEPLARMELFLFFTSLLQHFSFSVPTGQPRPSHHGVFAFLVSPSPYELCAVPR
# Chain of UniProt P08684 (P08684 whole entry, looked up): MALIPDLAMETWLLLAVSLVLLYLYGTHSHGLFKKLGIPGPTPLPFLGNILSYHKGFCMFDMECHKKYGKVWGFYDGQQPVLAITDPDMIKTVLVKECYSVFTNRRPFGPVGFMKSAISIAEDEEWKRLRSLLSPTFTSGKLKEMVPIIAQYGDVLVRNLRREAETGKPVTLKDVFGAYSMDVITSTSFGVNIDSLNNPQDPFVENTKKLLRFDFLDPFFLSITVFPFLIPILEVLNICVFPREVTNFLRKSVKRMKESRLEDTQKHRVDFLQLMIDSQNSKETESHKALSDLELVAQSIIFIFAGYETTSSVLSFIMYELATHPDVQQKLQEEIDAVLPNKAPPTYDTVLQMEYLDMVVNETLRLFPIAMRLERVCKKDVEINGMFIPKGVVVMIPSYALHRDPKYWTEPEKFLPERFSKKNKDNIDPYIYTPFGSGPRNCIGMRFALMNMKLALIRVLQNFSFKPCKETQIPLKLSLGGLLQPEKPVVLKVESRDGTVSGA
# Chain of UniProt P11712 (P11712 whole entry, looked up): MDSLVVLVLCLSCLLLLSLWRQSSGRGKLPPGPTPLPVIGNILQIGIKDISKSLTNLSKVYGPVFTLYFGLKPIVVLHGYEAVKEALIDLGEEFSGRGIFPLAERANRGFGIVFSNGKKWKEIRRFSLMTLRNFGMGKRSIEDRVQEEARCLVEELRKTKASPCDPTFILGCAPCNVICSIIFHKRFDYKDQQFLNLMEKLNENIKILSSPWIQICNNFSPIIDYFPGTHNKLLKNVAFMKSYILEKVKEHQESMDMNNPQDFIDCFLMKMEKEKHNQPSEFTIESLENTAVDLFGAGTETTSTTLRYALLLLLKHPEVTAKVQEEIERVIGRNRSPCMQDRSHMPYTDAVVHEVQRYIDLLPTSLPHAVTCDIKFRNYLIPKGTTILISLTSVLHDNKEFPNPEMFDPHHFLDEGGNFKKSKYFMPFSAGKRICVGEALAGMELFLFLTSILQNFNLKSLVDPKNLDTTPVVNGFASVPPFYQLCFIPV
# Chain of UniProt Q99828 (Q99828 whole entry, looked up): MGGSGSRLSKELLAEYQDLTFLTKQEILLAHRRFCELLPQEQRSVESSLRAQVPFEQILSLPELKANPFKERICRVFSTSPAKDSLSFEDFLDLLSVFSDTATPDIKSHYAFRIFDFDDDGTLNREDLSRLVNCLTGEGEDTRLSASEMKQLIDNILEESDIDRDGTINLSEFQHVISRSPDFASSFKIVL
smiles,measurement,setting,value
COCC(c1ccc(C(F)(F)F)cc1)N1CCN(C2(C)CCN(C(=O)c3c(C)ncnc3C)CC2)CC1C (stereo unspecified),Potency,[1],"inconclusive [activator, full curve, poor fit]"
same,Potency,HEK293,"inconclusive [inhibitor, single point]"
same,Potency,SKOV3,"inconclusive [rising, single point]"
CCOC(=O)CCNc1cc(N2CCc3ccccc3CC2)nc(-c2cccnc2)n1,Potency,[2],"inconclusive [inhibitor, single point]"
same,Potency,[3],"inconclusive [inhibitor, single point]"
same,Potency,[4],"inconclusive [inhibitor, single point]"
same,Potency,HEK293,"inconclusive [inhibitor, single point]"
same,Potency,SKOV3,"inconclusive [rising, single point]"
COC(=O)C1=C(C)NC(C)=C(C(=O)OCCc2ccc(N3CCN(C(c4ccccc4)c4ccccc4)CC3)cc2)C1c1cccc([N+](=O)[O-])c1 (stereo unspecified),Potency,[5],"inconclusive [cytotoxic, full curve, poor fit]"
same,Potency,[6],"inconclusive [cytotoxic, single point]"
same,Potency,[7],"inconclusive [inhibitor, single point]"
same,Potency,[8],"inconclusive [inhibitor, partial curve, poor fit]"
same,Potency,[9],"inconclusive [inhibitor, partial curve, poor fit]"
same,Potency,[10],"inconclusive [falling, single point]"
same,Potency,[3],inactive
same,Potency,HEK293,"inconclusive [inhibitor, single point]"
same,Potency,Tov-21-G,inactive
O=C(O)CCc1ccc(NCc2cccc3c2CCCN3CCOc2ccccc2)cc1F,Potency,[2],active: 3.16 µM
same,Potency,[11],"inconclusive [inhibitor, partial curve]"
same,Potency,[12],"inconclusive [inhibitor, partial curve, poor fit]"
same,Potency,[13],"inconclusive [inhibitor, single point]"
same,Potency,[14],"inconclusive [inhibitor, single point]"
same,Potency,[3],inactive
same,max response,HEK293,inactive: 0.703%
same,Potency,Tov-21-G,inactive
C/C=C(\C)C(=O)OC1C=C(C)CC(OC(=O)c2ccc(O)cc2)C2C1(C)CCC2(O)C(C)C (stereo unspecified),Potency,[15],inactive
same,Potency,[2],"inconclusive [inhibitor, partial curve]"
same,Potency,[3],"inconclusive [inhibitor, single point]"
same,Potency,[4],"inconclusive [inhibitor, single point]"
same,Potency,HEK293,"inconclusive [inhibitor, single point]"
same,Potency,Tov112D,inactive
